Source: patent publication US11366114B2, “Genetically encoded fluorescent sensors for detecting ligand bias and intracellular signaling through cAMP pathways” (MONTANA MOLECULAR LLC, priority 2013, dated 2022)

B1: Library 2-1 C2: cAMP sensor; SEQID 14 in Table 1, SEQ ID NO: 15 in Table 3 (protein)
chain: MVAAHAAHSSSSAEWIACLDKRPLERSSEDVDIIFTRLKEVKAFEKFHPNLLHQICLCGYYENLEKGITLFRQGDIGTNWYAVLAGSLDVKVSETSSHQDAVTICTLGIGTAFGESILDNTPRHATIVTRESSELLRIEQKDFKALWEKYRQYMAGLLAPPYGVMETGSNNDRIPDKENTPLIEPHVPLRPANTITKVPSEKILRAGKILRNAILSRAPHMIRDRKYHLKTYRQCCVGTELVDWMMQQTPCVHSRTQAVGMWQVLLEDGVLNHVDQEHHFQDKYLFYRFLDDEHEDAPLPTEEEKKECDEELQDTMLLLSQMGPDAHMRMILRKPPGQRTVDDLEIIYEELLHIKALSHLSTTVKRELAGVLIFESHAKGGTVLFNQGEEGTSWYIILKGSVNVVIYGKGVVCTLHEGDDFGKLALVNDAPRAASIVLREDNCHFLRVDKEDFNRILRDVLENVYIKADKQKNGIKANFKIRHNIEDGGVQLAYHYQQNTPIGDGPVLLPDNHYLSVQSILSKDPNEKRDHMVLLEFVTAPGITLGMDELYKGGTGGSMVSKGEELFTGVVPIQVELDGDVNGHKFSVSGEGEGDATYGKLTLKFICTTGKLPVPWPTLVTTLTYGVQCFSRYPDHMKQHDFFKSAMPEGYIQERTIFFKDDGNYKTRAEVKFEGDTLVNRIELKGIDFKEDGNILGHKLEYNTRILRDVEANTVRLKEHDQDVLVLEKVPAGNRASNQGNSQPQQKYTVMSGTPEKILEHFLETIRLEATLNEATDSVLNDFIMMHCVFMPNTQLCPALVAHYHAQPSQGTEQEKMDYALNNKRRVIRLVLQWAAMYGDLLQEDDVSMAFLEEFYVSVSDDARMIAALKEQLPELEKIVKQISEDAKAPQKKHKVLLQQFNTGDERAQKRQPIRGSDEVLFKVYCMDPTYTTIRVPVATSVKEVISAVADKLGSGEGLIIVKMSSGGEKVVLKPNDVSVFMTLTINGRLFACPREQFDSLTPLPEQEGPTVGTVGTFELMSSKDLAYQMTIYDWELFNCVHELELIYHTFGRHNFKKTTANLDLFLRRFNEIQFWVVTEICLCSQLSKRVQLLKKFIKIAAHCKEYKNLNSFFAIVMGLSNVAVSRLALTWEKLPSKFKKFYAEFESLMDPSRNHRAYRLTVAKLEPPLIPFMPLLIKDMTFTHEGNKTFIDNLVNFEKMRMIANTARTVRYYRSQPFNPDAAQANKNHQDVRSYVRQLNVIDNQRTLSQMSHRLEPRRP
B2: Library 5-1 E7: cAMP sensor; SEQID 15 in Table 1, SEQ ID NO: 16 in Table 3 (protein)
chain: MVAAHAAHSSSSAEWIACLDKRPLERSSEDVDIIFTRLKEVKAFEKFHPNLLHQICLCGYYENLEKGITLFRQGDIGTNWYAVLAGSLDVKVSETSSHQDAVTICTLGIGTAFGESILDNTPRHATIVTRESSELLRIEQKDFKALWEKYRQYMAGLLAPPYGVMETGSNNDRIPDKENTPLIEPHVPLRPANTITKVPSEKILRAGKILRNAILSRAPHMIRDRKYHLKTYRQCCVGTELVDWMMQQTPCVHSRTQAVGMWQVLLEDGVLNHVDQEHHFQDKYLFYRFLDDEHEDAPLPTEEEKKECDEELQDTMLLLSQMGPDAHMRMILRKPPGQRTVDDLEIIYEELLHIKALSHLSTTVKRELAGVLIFESHAKGGTVLFNQGEEGTSWYIILKGSVNVVIYGKGVVCTLHEGDDFGKLALVNDAPRAASIVLREDNCHFLRVDKEDFNRILRRANVYIKADKQKNGIKANFKIRHNIEDGGVQLAYHYQQNTPIGDGPVLLPDNHYLSVQSILSKDPNEKRDHMVLLEFVTAAGITLGMDELYKGGTGGSMVSKGEELFTGVVPIQVELDGDVNGHKFSVSGEGEGDATYGKLTLKFICTTGKLPVPWPTLVTTLTYGVQCFSRYPDHMKQHDFFKSAMPEGYIQERTIFFKDDGNYKTRAEVKFEGDTLVNRIELKGIDFKEDGNILGHKLEY
B3: Library 2-2 D1: cAMP sensor; SEQID 18 in Table 1, SEQ ID NO: 19 in Table 3 (protein)
chain: MVAAHAAHSSSSAEWIACLDKRPLERSSEDVDIIFTRLKEVKAFEKFHPNLLHQICLCGYYENLEKGITLFRQGDIGTNWYAVLAGSLDVKVSETSSHQDAVTICTLGIGTAFGESILDNTPRHATIVTRESSELLRIEQKDFKALWEKYRQYMAGLLAPPYGVMETGSNNDRIPDKENTPLIEPHVPLRPANTITKVPSEKILRAGKILRNAILSRAPHMIRDRKYHLKTYRQCCVGTELVDWMMQQTPCVHSRTQAVGMWQVLLEDGVLNHVDQEHHFQDKYLFYRFLDDEHEDAPLPTEEEKKECDEELQDTMLLLSQMGPDAHMRMILRKPPGQRTVDDLEIIYEELLHIKALSHLSTTVKRELAGVLIFESHAKGGTVLFNQGEEGTSWYIILKGSVNVVIYGKGVVCTLHEGDDFGKLALVNDAPRAASIVLREDNCHFLRVDKEDFNRILRLENVYIKADKQKNGIKANFKIRHNIEDGGVQLAYHYQQNTPIGDGPVLLPDNHYLSVQSILSKDPNEKRDHMVLLEFVTAAGITLGMDELYKGGTGGSMVSKGEELFTGVVPIQVELDGDVNGHKFSVSGEGEGDATYGKLTLKFICTTGKLPVPWPTLVTTLTYGVQCFSRYPDHMKQHDFFKSAMPEGYIQERTIFFKDDGNYKTRAEVKFEGDTLVNRIELKGIDFKEDGNILGHKLEYNTRILRDVEANTVRLKEHDQDVLVLEKVPAGNRASNQGNSQPQQKYTVMSGTPEKILEHFLETIRLEATLNEATDSVLNDFIMMHCVFMPNTQLCPALVAHYHAQPSQGTEQEKMDYALNNKRRVIRLVLQWAAMYGDLLQEDDVSMAFLEEFYVSVSDDARMIAALKEQLPELEKIVKQISEDAKAPQKKHKVLLQQFNTGDERAQKRQPIRGSDEVLFKVYCMDPTYTTIRVPVATSVKEVISAVADKLGSGEGLIIVKMSSGGEKVVLKPNDVSVFMTLTINGRLFACPREQFDSLTPLPEQEGPTVGTVGTFELMSSKDLAYQMTIYDWELFNCVHELELIYHTFGRHNFKKTTANLDLFLRRFNEIQFWVVTEICLCSQLSKRVQLLKKFIKIAAHCKEYKNLNSFFAIVMGLSNVAVSRLALTWEKLPSKFKKFYAEFESLMDPSRNHRAYRLTVAKLEPPLIPFMPLLIKDMTFTHEGNKTFIDNLVNFEKMRMIANTARTVRYYRSQPFNPDAAQANKNHQDVRSYVRQLNVIDNQRTLSQMSHRLEPRR
B4: Library 2-2 A11: cAMP sensor; SEQID 19 in Table 1, SEQ ID NO: 20 in Table 3 (protein)
chain: MVAAHAAHSSSSAEWIACLDKRPLERSSEDVDIIFTRLKEVKAFEKFHPNLLHQICLCGYYENLEKGITLFRQGDIGTNWYAVLAGSLDVKVSETSSHQDAVTICTLGIGTAFGESILDNTPRHATIVTRESSELLRIEQKDFKALWEKYRQYMAGLLAPPYGVMETGSNNDRIPDKENTPLIEPHVPLRPANTITKVPSEKILRAGKILRNAILSRAPHMIRDRKYHLKTYRQCCVGTELVDWMMQQTPCVHSRTQAVGMWQVLLEDGVLNHVDQEHHFQDKYLFYRFLDDEHEDAPLPTEEEKKECDEELQDTMLLLSQMGPDAHMRMILRKPPGQRTVDDLEIIYEELLHIKALSHLSTTVKRELAGVLIFESHAKGGTVLFNQGEEGTSWYIILKGSVNVVIYGKGVVCTLHEGDDFGKLALVNDAPRAASIVLREDNCHFLRVDKEDFNRILRLENVYIKADKQKNGIKANFKIRHNIEDGGVQLAYHYQQNTPIGDGPVLLPDNHYLSVQSILSKDPNEKRDHMVLLEFVTAAGITLGMDELYKGGTGGSMVSKGEELFTGVVPIQVELDGDVNGHKFSVSGEGEGDATYGKLTLKFICTTGKLPVPWPTLVTTLTYGVQCFSRYPDHMKQHDFFKSAMPEGYIQERTIFFKDDGNYKTRAEVKFEGDTLVNRIELKGIDFKEDGNILGHKLEYNTRNTVRLKEHDQDVLVLEKVPAGNRASNQGNSQPQQKYTVMSGTPEKILEHFLETIRLEATLNEATDSVLNDFIMMHCVFMPNTQLCPALVAHYHAQPSQGTEQEKMDYALNNKRRVIRLVLQWAAMYGDLLQEDDVSMAFLEEFYVSVSDDARMIAALKEQLPELEKIVKQISEDAKAPQKKHKVLLQQFNTGDERAQKRQPIRGSDEVLFKVYCMDPTYTTIRVPVATSVKEVISAVADKLGSGEGLIIVKMSSGGEKVVLKPNDVSVFMTLTINGRLFACPREQFDSLTPLPEQEGPTVGTVGTFELMSSKDLAYQMTIYDWELFNCVHELELIYHTFGRHNFKKTTANLDLFLRRFNEIQFWVVTEICLCSQLSKRVQLLKKFIKIAAHCKEYKNLNSFFAIVMGLSNVAVSRLALTWEKLPSKFKKFYAEFESLMDPSRNHRAYRLTVAKLEPPLIPFMPLLIKDMTFTHEGNKTFIDNLVNFEKMRMIANTARTVRYYRSQPFNPDAAQANKNHQDVRSYVRQLNVIDNQRTLSQMSHRLEPRRP
B5: Library 2-2 A5: cAMP sensor; SEQID 20 in Table 1, SEQ ID NO: 21 in Table 3 (protein)
chain: MVAAHAAHSSSSAEWIACLDKRPLERSSEDVDIIFTRLKEVKAFEKFHPNLLHQICLCGYYENLEKGITLFRQGDIGTNWYAVLAGSLDVKVSETSSHQDAVTICTLGIGTAFGESILDNTPRHATIVTRESSELLRIEQKDFKALWEKYRQYMAGLLAPPYGVMETGSNNDRIPDKENTPLIEPHVPLRPANTITKVPSEKILRAGKILRNAILSRAPHMIRDRKYHLKTYRQCCVGTELVDWMMQQTPCVHSRTQAVGMWQVLLEDGVLNHVDQEHHFQDKYLFYRFLDDEHEDAPLPTEEEKKECDEELQDTMLLLSQMGPDAHMRMILRKPPGQRTVDDLEIIYEELLHIKALSHLSTTVKRELAGVLIFESHAKGGTVLFNQGEEGTSWYIILKGSVNVVIYGKGVVCTLHEGDDFGKLALVNDAPRAASIVLREDNCHFLRVDKEDFNRILRLENVYIKADKQKNGIKANFKIRHNIEDGGVQLAYHYQQNTPIGDGPVLLPDNHYLSVQSILSKDPNEKRDHMVLLEFVTAAGITLGMDELYKGGTGGSMVSKGEELFTGVVPIQVELDGDVNGHKFSVSGEGEGDATYGKLTLKFICTTGKLPVPWPTLVTTLTYGVQCFSRYPDHMKQHDFFKSAMPEGYIQERTIFFKDDGNYKTRAEVKFEGDTLVNRIELKGIDFKEDGNILGHKLEYNTRNRILRDVEANTVRLKEHDQDVLVLEKVPAGNRASNQGNSQPQQKYTVMSGTPEKILEHFLETIRLEATLNEATDSVLNDFIMMHCVFMPNTQLCPALVAHYHAQPSQGTEQEKMDYALNNKRRVIRLVLQWAAMYGDLLQEDDVSMAFLEEFYVSVSDDARMIAALKEQLPELEKIVKQISEDAKAPQKKHKVLLQQFNTGDERAQKRQPIRGSDEVLFKVYCMDPTYTTIRVPVATSVKEVISAVADKLGSGEGLIIVKMSSGGEKVVLKPNDVSVFMTLTINGRLFACPREQFDSLTPLPEQEGPTVGTVGTFELMSSKDLAYQMTIYDWELFNCVHELELIYHTFGRHNFKKTTANLDLFLRRFNEIQFWVVTEICLCSQLSKRVQLLKKFIKIAAHCKEYKNLNSFFAIVMGLSNVAVSRLALTWEKLPSKFKKFYAEFESLMDPSRNHRAYRLTVAKLEPPLIPFMPLLIKDMTFTHEGNKTFIDNLVNFEKMRMIANTARTVRYYRSQPFNPDAAQANKNHQDVRSYVRQLNVIDNQRTLSQMSHRLEPRR

Tested on: cAMP
Test: Fluorescence response of cAMP sensors to isoproterenol in HEK 293 cells co-expressing the beta adrenergic receptor
Format: cell-based, human
Details: in response to isoproternol
Method in brief: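 HEK 293 or HEK 293T cells were transiently co-transfected with sensor construct and beta adrenergic receptor, then imaged 24-48 h later in DPBS at 25 °C. Green fluorescence change (488/530 nm in plate reader) was recorded after isoproterenol, DMSO, forskolin or IBMX addition, background-subtracted.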

Molecule	Relative Change in Fluorescence [%]
B1	35
B2	−34
B3	−33
B4	33
B5	−33
